Over roughly 33,000 sequences, “E-score (-0.5 to 0.5)” has its median near -0.017; the highest 2% begin near 0.3. Some of the results follow.
Target: T1, Sut1 (UniProt P53032)
T1 sequence: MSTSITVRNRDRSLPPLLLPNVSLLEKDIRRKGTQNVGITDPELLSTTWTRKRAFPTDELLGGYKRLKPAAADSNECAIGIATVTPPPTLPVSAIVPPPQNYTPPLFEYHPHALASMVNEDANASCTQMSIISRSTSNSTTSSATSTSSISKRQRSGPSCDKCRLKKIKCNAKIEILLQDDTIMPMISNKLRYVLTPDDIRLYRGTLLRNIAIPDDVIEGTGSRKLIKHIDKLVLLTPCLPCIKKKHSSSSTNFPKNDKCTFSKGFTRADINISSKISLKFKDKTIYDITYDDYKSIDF
Assay: PBM E-score (8-mer binding enrichment) (E-score (-0.5 to 0.5)); higher = stronger / more preferred TF binding; most listed sequences are background and not binding sites
Details: protein concentration: 200 nM; construct: GST-full length
Procedure: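 Universal 'all 10-mer' protein binding microarrays (Agilent AMADID 015681) probed with GST-tagged S. cerevisiae TFs (full-length or DBD) made by in vitro transcription/translation (PURExpress), about 100-200 nM. Bound TF was detected with fluorescent anti-GST. Each ungapped 8-mer (which stands for itself and its reverse complement) is scored by the PBM enrichment score (E-score), a modified Wilcoxon-Mann-Whitney statistic from -0.5 to +0.5, computed with the Universal PBM Analysis Suite. Scale: above 0.35 generally sequence-specific binding.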

First: GCGCCAAC
Second: ATTAAAAC
The “PBM E-score” value of the first is lower: -0.041 for the first, 0.296 for the second.

Compared with ACCAGAGT, GATCCTGC is higher in “PBM E-score” value: -0.256 for the first, -0.18 for the second.

First: AGAGTCCT
Second: GACCCAGA
The “PBM E-score” value of the first is lower: -0.114 for the first, -0.0368 for the second.

Compared with CACTTATG, TACTGCCA is lower in “PBM E-score” value: 0.0725 for the first, -0.175 for the second.

Compared with CCCGAAGC, AGTGTACC is lower in “PBM E-score” value: -0.166 for the first, -0.273 for the second.

Going from CTTTTTTC to GCCGGCGC, the “PBM E-score” value falls from 0.162 to 0.089.

Compared with CTGGTTCC, TAGCCCGA is lower in “PBM E-score” value: 0.00794 for the first, -0.14 for the second.

Compared with CCGATGAA, ATGCGCCG is lower in “PBM E-score” value: 0.16 for the first, 0.0604 for the second.

Compared with ACTACGAT, AGTGCGCA is lower in “PBM E-score” value: 0.0234 for the first, -0.042 for the second.

Compared with CAGGAGCC, AGGTTGGC is higher in “PBM E-score” value: -0.295 for the first, -0.015 for the second.

Going from GTGGCACA to TGATTCCA, the “PBM E-score” value rises from -0.278 to -0.0562.

Going from ATGCGCTC to ACACCTTA, the “PBM E-score” value rises from -0.0384 to 0.0334.

First: CACATGTC
Second: AATGCAGG
The “PBM E-score” value of the first is lower: -0.162 for the first, -0.0157 for the second.

Compared with ATTGTCGA, ACATAAGA is higher in “PBM E-score” value: 0.0452 for the first, 0.215 for the second.

Going from AGATTCTC to CTGATCAG, the “PBM E-score” value falls from 0.104 to 0.0171.

First: AACAATAG
Second: CGTATCAA
The “PBM E-score” value of the first is lower: 0.00653 for the first, 0.0679 for the second.

First: GCACTTGA
Second: ATCACGAC
The “PBM E-score” value of the first is lower: -0.219 for the first, -0.154 for the second.

Going from CAATTCCG to GACAGACC, the “PBM E-score” value falls from 0.305 to -0.173.

Compared with AACAGCAG, AGATGCAA is lower in “PBM E-score” value: 0.057 for the first, 0.00695 for the second.

Going from AACAGACA to CATCTACC, the “PBM E-score” value falls from 0.0562 to 0.0105.

Compared with AACACGGA, ATAGTGCG is lower in “PBM E-score” value: 0.278 for the first, 0.0358 for the second.

Compared with ACTAAGTA, AGGTATGC is lower in “PBM E-score” value: 0.0257 for the first, 0.00804 for the second.

First: CCGGCCAC
Second: AAGGGCGC
The “PBM E-score” value of the first is higher: 0.0457 for the first, -0.146 for the second.

Going from TAAATAAA to CAGCGTTA, the “PBM E-score” value falls from 0.247 to -0.187.

First: CGGACTTA
Second: GCAGGCGA
The “PBM E-score” value of the first is higher: 0.492 for the first, -0.248 for the second.

First: GACAGGTC
Second: TCGGAGAA
The “PBM E-score” value of the first is lower: -0.0333 for the first, 0.436 for the second.

First: CCTTAAGC
Second: ACTGGGGC
The “PBM E-score” value of the first is higher: -0.198 for the first, -0.231 for the second.

First: CGACGAGC
Second: AGGACATG
The “PBM E-score” value of the first is higher: -0.149 for the first, -0.265 for the second.

Compared with TCGAGCAA, ATAGGCGA is lower in “PBM E-score” value: 0.0639 for the first, -0.105 for the second.

Going from GGCTGACC to CGTTAGTA, the “PBM E-score” value rises from -0.205 to 0.0878.

Going from AACAATCG to CGGTCTAC, the “PBM E-score” value rises from -0.091 to -0.0329.

Compared with GATAACCA, CGTCCGAG is higher in “PBM E-score” value: 0.068 for the first, 0.149 for the second.

Going from AACTAGTG to AGACCTAG, the “PBM E-score” value falls from 0.0498 to -0.181.

Going from AGTCGGGG to CAATCCTA, the “PBM E-score” value falls from 0.0551 to -0.00398.

Compared with ACAGTAAC, CCCCTAGC is lower in “PBM E-score” value: 0.086 for the first, -0.354 for the second.

Going from GGCACGCA to CACTGCTA, the “PBM E-score” value rises from -0.0969 to -0.0464.

Compared with ACGCGGGG, AGACGCTC is lower in “PBM E-score” value: -0.0279 for the first, -0.2 for the second.

Compared with AGATCCCA, CTATCACC is lower in “PBM E-score” value: -0.0528 for the first, -0.106 for the second.

First: CTTTACAA
Second: CTTCTTGA
The “PBM E-score” value of the first is higher: 0.156 for the first, 0.0289 for the second.

Going from TATGTCGA to CTCGTTAC, the “PBM E-score” value falls from 0.0764 to -0.0946.

Compared with AAATACGT, CTCTGCGA is lower in “PBM E-score” value: 0.115 for the first, -0.0656 for the second.

Going from CTTGTCTA to AACGAACG, the “PBM E-score” value rises from 0.0157 to 0.037.

First: CCGACCCC
Second: AAGGCTCC
The “PBM E-score” value of the first is lower: -0.278 for the first, -0.0622 for the second.

Reference: the supplement of paper PMC3334620
